# Measured values published in PubChem BioAssay (NCATS).
# Values joined by “and” are separate entries in the source; they are usually repeats but may differ in a detail not shown here. Identical values can stand only once. Inconclusive results, whose numbers are uncertain, are shown with a selection of clear calls. For some assays here: No potency is given beside an inconclusive call; the fits are too rough. Active and inactive are the calls of the source. Unless noted, calls follow the shape of the dose curve; as a rule, active = well fitted curve in the direction sought with a large enough effect; inconclusive = small, poorly fitted or top-dose-only effect, or another doubt; inactive = no such curve, though single readings can be large; an effect the other way counts as inactive or inconclusive.
# Tests used:
# Furin (Homo sapiens) = Furin (Homo sapiens) (UniProt P09958); test: Furin counterscreen qHTS for Zika virus inhibitors (AID 1347149); also: potency is read from the fitted curve at half-maximal effect; nearly all actives have a fitted effect of over 70% in size
# UniProt P09958, sequence (P09958 whole entry, looked up): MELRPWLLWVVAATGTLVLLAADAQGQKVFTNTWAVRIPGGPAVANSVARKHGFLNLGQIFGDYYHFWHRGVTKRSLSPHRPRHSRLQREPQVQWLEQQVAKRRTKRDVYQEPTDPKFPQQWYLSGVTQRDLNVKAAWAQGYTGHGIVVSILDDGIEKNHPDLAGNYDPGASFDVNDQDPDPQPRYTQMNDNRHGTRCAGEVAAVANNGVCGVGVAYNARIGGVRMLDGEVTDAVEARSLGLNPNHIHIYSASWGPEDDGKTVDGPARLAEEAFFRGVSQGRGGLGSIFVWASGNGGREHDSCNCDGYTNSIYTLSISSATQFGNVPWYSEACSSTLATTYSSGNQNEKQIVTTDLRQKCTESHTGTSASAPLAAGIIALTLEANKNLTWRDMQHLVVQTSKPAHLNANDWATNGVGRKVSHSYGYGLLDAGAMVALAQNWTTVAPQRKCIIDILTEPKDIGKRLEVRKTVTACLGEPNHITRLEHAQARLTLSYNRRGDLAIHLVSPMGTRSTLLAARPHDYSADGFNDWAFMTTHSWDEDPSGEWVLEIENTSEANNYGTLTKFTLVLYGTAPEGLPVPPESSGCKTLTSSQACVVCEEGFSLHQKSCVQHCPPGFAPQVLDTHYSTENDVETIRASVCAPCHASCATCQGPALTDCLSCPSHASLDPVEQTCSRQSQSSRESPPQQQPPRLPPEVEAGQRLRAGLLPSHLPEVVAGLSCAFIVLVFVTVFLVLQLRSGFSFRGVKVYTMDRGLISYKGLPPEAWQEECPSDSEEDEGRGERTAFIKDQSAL
# Method in brief: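 Counterscreen measures cleavage of 2 microM BOC-RVRR-AMC, below its ~15 microM Km, by 5 nM full-length human furin at pH 7.0 after a 15-min compound preincubation. Inhibition derives from the 15-min fluorescence increase at 37C.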
# [1] = test system: Zika virus NS2B-NS3 protease (linked construct); test: Confirmatory screen NINDS AMC qHTS for Zika virus inhibitors (AID 1347152); also: potency is read from the fitted curve at half-maximal effect; nearly all actives have a fitted effect of over 70% in size
# Method in brief: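 Linked NS2B-NS3 1 nM, Tris pH 8.0/0.01% Tween 20; cpd 15 min RT dark; + Nle-KRR-AMC 10 µM (Km 18.3 µM); read 0 and 15 min, 340/450 nm; %inh vs controls, 4-param Hill.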
# [2] = Vero cells viability qHTS for Zika virus inhibitors (AID 1347167); also: % is scaled to controls: 0 for no effect and ±100 for the full control effect
# Method in brief: (§1)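 Luminescent ATP readout (CellTiter Glo) after 30 min at 37 degrees C gives viability; cells in DMEM + 4% FBS were treated 24 to 48 hours with compound, following overnight attachment.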
# [3] = HepG2 cells viability qHTS for Zika virus inhibitors (AID 1347168); also: % is scaled to controls: 0 for no effect and ±100 for the full control effect
# Method in brief: as §1
# [4] = molecular target: Glucocorticoid receptor (Homo sapiens) (UniProt P04150); test: GR-EFC Redistribution (AID 451; calls by dose curve; also: potency is read from the fitted curve at half-maximal effect); conditions: CHO-K1 GR-EFC translocation, beta-gal luminescence, 2 h
# UniProt P04150, sequence (P04150 whole entry, looked up, the tested form may be a part): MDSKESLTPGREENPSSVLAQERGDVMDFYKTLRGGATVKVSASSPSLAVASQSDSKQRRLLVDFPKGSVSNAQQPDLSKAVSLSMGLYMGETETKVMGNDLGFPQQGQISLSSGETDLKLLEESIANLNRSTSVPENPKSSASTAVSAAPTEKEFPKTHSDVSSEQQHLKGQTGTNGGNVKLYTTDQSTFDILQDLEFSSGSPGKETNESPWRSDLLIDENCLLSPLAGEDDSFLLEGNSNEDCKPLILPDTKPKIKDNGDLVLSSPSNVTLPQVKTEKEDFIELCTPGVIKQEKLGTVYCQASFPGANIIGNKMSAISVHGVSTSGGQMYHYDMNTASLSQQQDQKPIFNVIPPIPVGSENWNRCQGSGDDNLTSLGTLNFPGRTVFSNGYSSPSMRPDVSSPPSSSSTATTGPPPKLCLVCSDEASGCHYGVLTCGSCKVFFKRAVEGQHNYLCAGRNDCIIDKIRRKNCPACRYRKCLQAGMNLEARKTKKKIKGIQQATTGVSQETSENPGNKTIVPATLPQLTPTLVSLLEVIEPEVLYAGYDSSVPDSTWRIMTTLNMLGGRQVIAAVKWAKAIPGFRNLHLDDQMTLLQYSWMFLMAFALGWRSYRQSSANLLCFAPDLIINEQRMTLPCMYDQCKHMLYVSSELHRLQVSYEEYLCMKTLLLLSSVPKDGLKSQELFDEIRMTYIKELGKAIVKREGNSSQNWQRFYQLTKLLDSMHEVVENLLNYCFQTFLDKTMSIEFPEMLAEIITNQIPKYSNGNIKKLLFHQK
# Method in brief: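 Translocation of GR-ED fusion to nuclear EA restores b-gal, read by luminescence after 1 h room-temperature detection. Engineered CHO-K1 biosensor cells, 1,000/well, exposed 2 h at 37 C to titrations up to 46 uM final.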
# [5] = qHTS for inhibitors of adenylyl cyclases using a fission yeast platform: a pilot screen against the NCATS LOPAC library (AID 1347410);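 also: plate controls were DMSO vehicle for no effect and DPI positive control for full effect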
# Method in brief: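 Read-out: fbp1-GFP fluorescence by laser scanning cytometry (488 nm laser), a gain of signal when AC/cAMP-PKA signalling is inhibited. Strain CHP2027 expressing AC9, GNAS and PDE4D2; compounds at up to 57 µM; 18 h, 30C.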
# [6] = Validation qHTS assay for inhibitors of Activation Induced Cytidine Deaminase (AID): UDG Counterscreen signal (AID 1347427); also: 0% is about no effect
# Method in brief: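 Fluorescence at 560 nm excitation, 665 nm emission reports UDG signal after 250 mM NaOH (2x) addition and 30 min. Enzymes (AID 1 uM, UDG 2 U/mL, at 4/3x) preincubated 10 min with compound, then 4 h with 4x 250 nM DJC20/DJC23 substrate at room temperature.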
# [7] = NCATS anti-infectives library activity on HEK293 viability as a counter-qHTS vs the C. elegans viability qHTS (AID 1745854); also: potency is read from the fitted curve at half-maximal effect
# Method in brief: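 CellTiter-Glo luminescence, read on a CCD imager, scored viability of HEK293 cells after 24 hr compound exposure at 37C. Library tested in several concentrations, 1:5 steps, up to 41.7 uM; digitonin served as control.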
# [8] = Cell Viability - NIH 3T3 (AID 541); conditions: NIH 3T3 cell viability, qHTS; activity change, negative = cytotoxicity: at 92.2 µM (top of the series);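 also: cells exposed to compound for 40 hours; plate controls were DMSO alone for no effect and tamoxifen positive control for full effect; nearly all actives have a fitted effect of over 25% in size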
# Method in brief: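 qHTS format; 40 hr compound exposure, 37 °C; CellTiter-Glo luminescence (cellular ATP) read-out after 20 min at RT. Decrease in ATP = cytotoxicity; AC50 from standard Hill fit.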
# [9] = Cell Viability - HUV-EC-C (AID 542);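 also: potency is read from the fitted curve at half-maximal effect; cells exposed to compound for 40 hours; nearly all actives have a fitted effect of over 35% in size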
# Method in brief: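 Luminescent ATP read-out (CellTiter-Glo, 20 min room temperature) after 40 hr compound treatment of HUV-EC-C cells at 37 °C. Concentration-response data fitted with the standard Hill equation to give AC50; tamoxifen and doxorubicin served as positive controls.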
# [10] = Cell Viability - Renal Proximal Tubule (AID 545); conditions: renal proximal tubule cells viability, primary cells of rat origin; at 91.7 µM (top of the series);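 also: cells exposed to compound for 40 hours; nearly all actives have a fitted effect of over 40% in size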
# Method in brief: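 Rat kidney proximal tubule cells, freshly isolated; 1000 cells/well, 5 hr settle, compound 40 hr 37 °C. CellTiter-Glo 20 min RT, luminescence read. AC50 by standard Hill fit.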
# [11] = Cell Viability - Mesenchymal (AID 546); conditions: mesenchymal cells viability, qHTS; activity change, negative = cytotoxicity: at 91.7 µM (top of the series);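 also: potency is read from the fitted curve at half-maximal effect; cells exposed to compound for 40 hours before reading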
# Method in brief: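 CellTiter-Glo luminescence (intracellular ATP, 20 min room temperature) after 40 hr compound exposure at 37 °C of 1000 glomerulus-derived human kidney mesenchymal cells/well; AC50 values obtained by fitting qHTS concentration-response data to the Hill equation.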
# [12] = Cellular Toxicity (caspase-3) H-4-II-E (AID 663); conditions: H-4-II-E rat hepatoma, scaled: DMSO 0%, 100 µM tamoxifen 100%; at 92.2 µM (top of the series);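 also: cells exposed to compound for 16 hr before readout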
# Method in brief: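 Caspase 3/7 activation measured by luminescent aminoluciferin substrate cleavage after 16 hr compound treatment of H-4-II-E cells in complete medium. Increase normalized between DMSO (basal) and 100 uM tamoxifen (100%); Hill-equation AC50 from concentration-response.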
# [13] = qHTS assay for small molecule antagonists of the retinoid-related orphan receptor gamma (ROR-gamma) signaling pathway - cell viability counter screen (AID 720652; active = well fitted curve in the direction sought with a large enough effect in the repeat runs; inconclusive = weak or mixed curves; inactive = no such curve, though single readings can be large; an effect the other way counts as inactive or inconclusive;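 also: potency is read from the fitted curve at half-maximal effect; compound exposure lasted 16 hr before ATP read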)
# Method in brief: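 CHO RORE-LUC/TET-ROR line, 1,000 cells/well, 37 C 5% CO2 5 hr; cpd or DMSO + doxycycline induction, 16 hr. CellTiter-Glo, 30 min RT, luminescence = ATP content.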
# [14] = qHTS assay for cell viability of HEK293 cells (AID 743288); conditions: ATP luminescence (CellTiter-Glo), 18 h; max response: active compounds read low; also: % is scaled to controls: 0 for no effect and ±100 for the full control effect; nearly all actives have a fitted effect of over 50% in size
# Method in brief: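 ATP luminescence (CellTiter-Glo) reports metabolically competent cell number after parental HEK293 cells, 2,000/well, were treated with DMSO-dissolved compounds for 18 h at 37 C; reagent incubation 30 min, room temperature.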
# [15] = molecular target: Pyruvate kinase PKM (Homo sapiens) (UniProt P14618); test: qHTS Assay for Activators of Human Muscle Pyruvate Kinase (AID 954; active = well fitted curve in the direction sought with a large enough effect, not every such curve was filed as active; inconclusive = small, poorly fitted or top-dose-only effect, or effect the other way, or another doubt; inactive = no such curve, though single readings can be large or run the other way;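 also: 0% = uninhibited enzyme and -100% = no enzyme or full thiadiazolimine inhibition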); conditions: purified human muscle pyruvate kinase, luciferase-coupled luminescence, 1 h; activity change, negative = inhibition: at 57.5 µM (top of the series)
# UniProt P14618, sequence (P14618 whole entry, looked up): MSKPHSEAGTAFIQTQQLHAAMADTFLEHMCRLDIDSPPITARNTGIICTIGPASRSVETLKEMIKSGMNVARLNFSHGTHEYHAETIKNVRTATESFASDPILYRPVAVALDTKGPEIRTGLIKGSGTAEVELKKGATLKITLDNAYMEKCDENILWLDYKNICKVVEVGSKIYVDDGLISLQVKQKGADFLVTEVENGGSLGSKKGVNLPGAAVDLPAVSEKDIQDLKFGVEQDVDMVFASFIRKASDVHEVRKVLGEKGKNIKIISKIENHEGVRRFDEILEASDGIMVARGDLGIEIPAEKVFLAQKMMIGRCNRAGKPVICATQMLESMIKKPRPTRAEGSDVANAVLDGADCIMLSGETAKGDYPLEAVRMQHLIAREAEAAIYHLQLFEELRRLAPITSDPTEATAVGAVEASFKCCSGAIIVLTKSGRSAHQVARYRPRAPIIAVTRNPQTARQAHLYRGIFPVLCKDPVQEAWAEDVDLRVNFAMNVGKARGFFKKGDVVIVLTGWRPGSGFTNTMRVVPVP
# Method in brief: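 A coupled luminescent readout tracked ATP made from ADP by purified PKM2. Final conditions included 0.1 nM enzyme, PEP and ADP at 0.5 and 0.1 mM, pH 7.2 imidazole buffer with BSA, and a one-hour room-temperature reaction.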
# [16] = molecular target: Endonuclease 4 (Escherichia coli (strain K12)) (UniProt P0A6C1); test: Counterscreen for APE1 Inhibitors: qHTS Assay for Inhibitors of Endonuclease IV (AID 2565); also: potency is read from the fitted curve at half-maximal effect; conditions: E. coli Endo IV, fluorogenic AP-site DNA cleavage
# Method in brief: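 The reaction buffer contained 50 mM Tris-HCl pH 7.5, 50 mM NaCl, 2 mM MgCl2, 1 mM DTT and 0.01% Tween-20. Incision of a 50 nM fluorophore/quencher THF substrate by 2 nM enzyme was measured kinetically.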
# [17] = Cell Viability - N2a (AID 540); conditions: N2a mouse neuroblastoma cell viability; activity change, negative = cytotoxicity: at 92.2 µM (top of the series);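 also: cells exposed to compound for 40 h at 37 °C; plate controls were DMSO alone for no effect and tamoxifen control for full effect; nearly all actives have a fitted effect of over 45% in size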
# Method in brief: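 N2a mouse neuroblastoma, 1500 cells/well, 5 hr settle; compound 40 hr, 37 °C; CellTiter-Glo 20 min RT; luminescence; Hill-fit AC50.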
# [18] = Cellular Toxicity (caspase-3) Mesangial (AID 660); conditions: mesangial cells, normalized: DMSO 0%, 100 µM tamoxifen 100%; at 91.7 µM (top of the series);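 also: combined caspase 3 and 7 activity read by Caspase-Glo luminescence; cells exposed to compound for 16 h before the caspase read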
# Method in brief: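 Luminescent Caspase-Glo 3/7 readout (aminoluciferin substrate cleavage, 20 min RT) after 16 h compound exposure at 37 °C of normal human mesangial cells. Signal increase normalized between DMSO basal and 100 uM tamoxifen; Hill-equation AC50.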
# [19] = molecular target: Nuclear receptor ROR-gamma (Homo sapiens) (UniProt P51449); test: qHTS assay for small molecule antagonists of the retinoid-related orphan receptor gamma (ROR-gamma) signaling pathway (AID 651802);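 also: CHO cells with doxycycline-induced ROR-gamma expression; luciferase reporter luminescence driven by ROR response element; % is scaled to controls: 0 for no effect and ±100 for the full control effect; nearly all actives have a fitted effect of over 60% in size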
# UniProt P51449, sequence (P51449 whole entry, looked up): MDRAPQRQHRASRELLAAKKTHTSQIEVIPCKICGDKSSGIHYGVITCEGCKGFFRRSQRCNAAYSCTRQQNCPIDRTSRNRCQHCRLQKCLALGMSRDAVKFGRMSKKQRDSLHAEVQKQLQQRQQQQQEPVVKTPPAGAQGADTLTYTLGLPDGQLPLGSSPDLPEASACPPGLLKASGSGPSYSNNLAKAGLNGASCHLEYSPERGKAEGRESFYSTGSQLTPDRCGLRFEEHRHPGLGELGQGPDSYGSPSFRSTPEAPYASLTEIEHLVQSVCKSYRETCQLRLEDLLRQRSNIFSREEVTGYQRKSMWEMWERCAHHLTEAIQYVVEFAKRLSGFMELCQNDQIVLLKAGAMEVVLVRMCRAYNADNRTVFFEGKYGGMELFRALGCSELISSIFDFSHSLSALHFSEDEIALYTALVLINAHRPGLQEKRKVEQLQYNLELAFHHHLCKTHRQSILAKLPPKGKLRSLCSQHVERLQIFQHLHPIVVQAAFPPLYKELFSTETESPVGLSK
# Method in brief: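 Luciferase read-out: ONE-Glo luminescence after 30 min at room temperature, following 16hr doxycycline induction at 37C, 5% CO2 of CHO cells with TET-inducible ROR and RORE-LUC reporter; decreased luminescence = reduced reporter activity.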
# Tags tell the direction and shape of the fitted curve.
compound,measurement,setting,value
CCc1ccc2c(-c3cccc(Cl)c3)nc(=O)n(CC)c2n1,Potency,Furin (Homo sapiens),active: 21.5 µM
same,Potency,[1],"inconclusive [inhibitor, partial curve, poor fit]"
same,Potency,[2],inactive
same,Potency,[3],inactive
CC(=O)NNC(=O)N1Cc2ccccc2Oc2ccc(Cl)cc21,Potency,[4],inconclusive [single point]
O=C(/C=C/c1ccc(O)c(O)c1)OCCc1ccccc1,Potency,[5],inactive
Nc1nc(Nc2ccccc2)nc2c1ncn2[C@@H]1O[C@H](CO)[C@@H](O)[C@H]1O,Potency,[6],inactive
N#C/C(=C\c1ccc(O)c(O)c1)C(=O)NCCCc1ccccc1,Potency,[7],"inconclusive [cytotoxic, single point]"
CC(C)NCC(O)COc1cccc2ccccc12 (stereo not given),"activity change, negative = cytotoxicity",[8],inconclusive: -33.6%
same,Potency,[9],"inconclusive [falling, partial curve]"
same,"activity change, negative = cytotoxicity",[10],inconclusive: -33%
same,Potency,[11],"inconclusive [falling, full curve, poor fit]"
same,caspase-3 activation,[12],inactive: 12.6%
same,Potency,[13],"inconclusive [cytotoxic, partial curve, poor fit]"
same,max response,[14],inactive: 1.78% and inactive: -12.1%
Oc1cc2c(cc1O)CN(C(=S)NCCc1ccc(Cl)cc1)CCC2,"activity change, negative = inhibition",[15],inconclusive: 47.3% [activator]
C[N+](C)(CCCCCC[N+](C)(C)CCCN1C(=O)c2cccc3cccc(c23)C1=O)CCCN1C(=O)c2cccc3cccc(c23)C1=O,Potency,[16],active: 3.55 µM
CC(=O)C(C)=O,"activity change, negative = cytotoxicity",[17],inactive: 3.98%
same,caspase-3 activation,[18],inactive: 0.434%
same,Potency,[19],inactive
